# Measurements: publication PMC4336329 (PLoS ONE, 2015)
# Hit rate of the full screen: of about 310,000 compounds, about 14,000 (4.5%) showed an effect of 50% or more. Effects have a minus sign here. The list shows a part of the results.
# Target: human ether-à-go-go-related gene (hERG) potassium channel (human, UniProt Q12809)
# Test: primary screen, population patch clamp on CHO cells stably expressing hERG
# 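Note: peak tail current of the secondary pulse compared with the same well before compound.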
# Sequence of human ether-à-go-go-related gene (hERG) potassium channel (Q12809 whole entry, looked up): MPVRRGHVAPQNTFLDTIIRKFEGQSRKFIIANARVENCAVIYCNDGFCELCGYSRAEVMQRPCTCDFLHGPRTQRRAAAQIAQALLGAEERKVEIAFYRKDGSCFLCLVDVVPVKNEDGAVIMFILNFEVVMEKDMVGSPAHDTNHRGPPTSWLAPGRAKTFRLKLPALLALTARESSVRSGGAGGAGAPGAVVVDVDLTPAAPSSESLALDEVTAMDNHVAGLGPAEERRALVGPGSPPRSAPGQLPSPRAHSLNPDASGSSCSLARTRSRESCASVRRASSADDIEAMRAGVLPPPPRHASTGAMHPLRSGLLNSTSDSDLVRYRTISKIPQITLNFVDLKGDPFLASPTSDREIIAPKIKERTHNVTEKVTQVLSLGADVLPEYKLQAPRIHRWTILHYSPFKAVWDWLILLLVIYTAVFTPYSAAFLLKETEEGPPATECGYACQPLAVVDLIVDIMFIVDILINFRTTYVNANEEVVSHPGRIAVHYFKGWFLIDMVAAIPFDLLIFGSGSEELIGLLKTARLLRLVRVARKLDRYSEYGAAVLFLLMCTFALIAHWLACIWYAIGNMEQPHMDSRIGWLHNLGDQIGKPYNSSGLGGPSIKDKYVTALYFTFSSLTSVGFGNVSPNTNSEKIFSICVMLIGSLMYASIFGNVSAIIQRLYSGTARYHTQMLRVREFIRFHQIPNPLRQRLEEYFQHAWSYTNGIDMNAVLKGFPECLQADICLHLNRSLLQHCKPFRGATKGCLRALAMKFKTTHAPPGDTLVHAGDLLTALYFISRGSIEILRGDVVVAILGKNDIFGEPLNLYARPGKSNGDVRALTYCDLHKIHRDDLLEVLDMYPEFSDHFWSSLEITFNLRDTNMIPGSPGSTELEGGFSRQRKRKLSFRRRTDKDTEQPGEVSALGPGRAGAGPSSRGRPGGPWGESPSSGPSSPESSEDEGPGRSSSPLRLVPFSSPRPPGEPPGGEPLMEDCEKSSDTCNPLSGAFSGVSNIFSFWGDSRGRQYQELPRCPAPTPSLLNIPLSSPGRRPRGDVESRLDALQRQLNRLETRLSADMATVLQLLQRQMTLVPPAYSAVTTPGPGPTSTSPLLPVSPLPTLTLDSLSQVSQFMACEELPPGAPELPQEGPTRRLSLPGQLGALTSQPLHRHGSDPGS
row,SMILES,"hERG current change (%, negative = inhibition) at 10uM"
1,Cc1cc(C)c(S(=O)(=O)N2CCC(C(=O)OCc3c(C)noc3C)CC2)c(C)c1,-22.6%
2,CCCCSc1nc(N)c(C#N)c(-c2cccs2)c1C#N,5.08%
3,Cc1nc(-c2ccc(Cl)cc2)sc1C1(C)CC(c2ccncc2)=NO1 (stereo not drawn),-14.1%
4,CCn1c(SCCN2CCCCC2)nnc1-c1ccc(S(=O)(=O)N2CCOCC2)cc1.O=C(O)C(=O)O,-6.13%
5,CN(C)S(=O)(=O)c1ccc(C(=O)NCC(C)(C)CN=C2NS(=O)(=O)c3ccccc32)cc1,2.11%
6,COC(=O)c1cccc(NC(=S)Nc2ccccc2Cl)c1,-3.48%
7,Cc1ccc(OCC(=O)N[C@@H](C)c2nnc3ccccn23)cc1C,3.89%
8,CCCc1cc(=O)oc2c(C)c(OC(C)C(=O)NCC(O)c3ccccc3)ccc12 (stereo not drawn),-36.3%
9,CCCNC(=O)C12CCC(C)(C(=O)C1Br)C2(C)C (stereo not drawn),-2.81%
10,Cc1ccc(N(CC(=O)Nc2ccc3c(c2)OCCO3)S(C)(=O)=O)cc1,0.681%
11,CN1CCc2nc(SCc3ccc(C(C)(C)C)cc3)c(C#N)cc2C1,-9.71%
12,O=C(c1cc2ccccc2o1)N1CCN(c2ccccc2Cl)CC1,-11.6%
13,CC(=O)NCCCOc1ccc([N+](=O)[O-])cc1Cl,6.8%
14,CC(=O)N1CCc2cc(S(=O)(=O)NC(C(=O)NCc3ccccc3)C(C)C)ccc21 (stereo not drawn),-20.9%
15,Cc1ccccc1-c1nnc(SCC(=O)c2c(N)n(C3CC3)c(=O)[nH]c2=O)o1,7.7%
16,COc1ccccc1-c1nc2ccccc2nc1-c1ccccc1,6.3%
17,CN(c1ccc(C(=O)NC2CCCC2)cc1)S(=O)(=O)c1ccc(Cl)cc1,16.2%
18,CCCCSc1nnc(-c2ccc(C)cc2)n1C,-33.7%
19,CCCCn1c(SCC(=O)Nc2cc(C)on2)nc2ccccc2c1=O,2.03%
20,Nc1nc(-c2cc3c(cc2Cl)OCCO3)cs1,6.72%
21,Cc1ccc(SCCOCCN2CC(C)OC(C)C2)cc1.Cl (stereo not drawn),-12.4%
22,COc1ccccc1CNC(=O)C1CCC1,-4.94%

row,SMILES,"hERG current change (%, negative = inhibition) at 10uM"
1,CN(Cc1ccccc1)CC(O)COc1ccc(CNCc2cccnc2)cc1 (stereo not drawn),1.13%
2,CCOC(=O)Cc1csc(NC(=O)COc2ccc(C)cc2)n1,-3.63%
3,O=C(c1ccccc1F)N1CCN(c2ccccc2F)CC1,-2.08%
4,CCC(C)[C@H](NC(=O)Nc1cccc(Cl)c1)C(=O)O (stereo partly drawn),9.82%
5,CC(C)(O)c1[nH]c2cc(C(F)(F)F)ccc2c1C(C)(C)O,11.1%
6,Cn1c(=O)c2c(ncn2CC(=O)Nc2nc(-c3ccc(F)c(F)c3)cs2)n(C)c1=O,13.9%
7,COc1ccc(/C=C\c2onc(C)c2S(=O)(=O)N2CCC(C(=O)NCCC(C)C)CC2)cc1,-7.26%
8,COc1cc([N+](=O)[O-])ccc1NC(=O)NCC1CCN(Cc2ccc(Cl)cc2)CC1,-60.9%
9,COc1ccc(CCNc2ccncn2)cc1.Cl,3.65%
10,O=C(CSc1nnc(COc2ccc(Cl)cc2)o1)N1CCCC1,-13.5%
11,CCC1CCc2c(sc3ncnc(N4CCOCC4)c23)C1 (stereo not drawn),-20.8%
12,COc1ccc(/C=N/Nc2ncccc2[N+](=O)[O-])c(OC)c1,2.07%
13,Cc1ccc(-c2nn3c(C)nnc3s2)cc1NC(=O)CSc1ccc(Cl)cc1,-14%
14,CCOc1ccc(NC(=O)c2cccnc2Cl)c([N+](=O)[O-])c1,-9.98%
15,C#CCOCCOCCOCCNc1nc(N2CCN(C(=O)[C@H]([C@@H](C)CC)n3cc([C@@H](N)CO)nn3)CC2)nc(N2CCN(C(=O)[C@H]([C@@H](C)CC)n3cc([C@@H](N)Cc4ccc(O)cc4)nn3)CC2)n1.Cl,4.48%
16,CN1CCCCC1c1ccc(-c2cccnc2)nc1.Cl (stereo not drawn),0.0318%
17,O=S(=O)(NCC1CCCO1)c1ccc(S(=O)(=O)N2CCc3ccccc3C2)cc1 (stereo not drawn),20.2%
18,OC(CN1CCN(c2ccc(F)cc2)CC1)c1ccc(Cl)cc1 (stereo not drawn),-37.9%
19,O=C1/C(=C\c2ccco2)SC(=S)N1c1ccccc1,-0.16%
20,O=c1[nH]c(=O)c2nnc(N/N=C/c3ccccc3F)nc2[nH]1,7.2%
21,C[C@H]1CC[C@]2(O[C@@H](CCO)C[C@H](O)[C@H]2O)O1,19.7%
22,COc1nc(N(C)C)nc(N(C)c2cc(Cl)cc(Cl)c2)n1,2.99%

row,SMILES,"hERG current change (%, negative = inhibition) at 10uM"
1,COc1cc(NC(=S)NCC2CCCO2)c(OC)cc1Cl (stereo not drawn),5.01%
2,O=C(NCCCN1CCC(Cc2ccccc2)CC1)C1CCN(S(=O)(=O)N2CCC3(CC2)OCCO3)CC1,-42.7%
3,Nc1c(Cl)cc2c(c1Oc1ccccc1)C(=O)c1ccccc1C2=O,3.84%
4,O=c1[nH]cnc2ccsc12,18.6%
5,COCCNC(=O)COc1ccccc1Cl,1.56%
6,O=C(NC1CCCCC1)c1cc(-c2cccs2)on1,-1.56%
7,CCCc1nc(NCc2ccccn2)c2nnn(Cc3ccccc3F)c2n1,5.34%
8,Cc1ccc(S(=O)(=O)N2CCOCC2)cc1C(=O)Nc1ccc2c(c1)OCCO2,3.14%
9,O=C(CN1CCCC1)Nc1ccc([N+](=O)[O-])cc1Cl,-16.9%
10,CC1=Nc2nc(N3CCCCCC3)c(C#N)c3c4c(nc(c23)N1)N(c1ccc2ccccc2c1)C(=O)C4.CN(C)C=O,14.2%
11,O=C(COc1ccccc1F)c1ccc(O)cc1O,-13.8%
12,Cc1cc(=O)oc2cc(OCC(=O)NCC3CCC(C(=O)O)CC3)ccc12 (stereo not drawn),22.8%
13,Cc1cc(NC(=O)c2cccc(Cl)c2)n[nH]1,7.05%
14,N#Cc1c(SCC(N)=O)nc2c(c1-c1ccncc1)CCCC2,-42.1%
15,COc1ccc(CCN(C(=O)c2ccc(F)cc2)C2=CC3CCC(C2)N3C)cc1OC.Cl (stereo not drawn),-46.6%
16,O=c1c2ccccc2nnn1CSc1ncnc2ccccc12,6.65%
17,O=[N+]([O-])c1c(Nc2ccccc2)ccc2nonc12,-3.47%
18,COc1ccc(CN(C)C(C)C(=O)Nc2ccc(S(=O)(=O)N3CCOCC3)cc2)c(OC)c1 (stereo not drawn),-27.5%
19,COc1ccc(OC)c(N(CC(=O)Nc2cccc3ccccc23)S(C)(=O)=O)c1,0.254%
20,C/C(=N\NC(=O)C1CC1c1ccccc1)c1ccc(C)s1 (stereo not drawn),-6.02%
21,COc1ccccc1/C=N/NC(=O)c1cccc2ccccc12,12.8%
22,CCOC(=O)/C(C#N)=c1/s/c(=C2\C=Cc3ccccc3N2CC)c(=O)n1CC,13.6%

row,SMILES,"hERG current change (%, negative = inhibition) at 10uM"
1,Cc1cc(C)cc(NC(=O)c2ccc(Cn3nc(C)c(Cl)c3C)o2)c1,12.1%
2,CCC(=O)N(C)CCc1cc2c(c(OC)c1/C=N/NC(=O)c1ccncc1)OCO2,-6.56%
3,O=C(/C=C/c1ccc(F)cc1)N1CC[C@@]2(O)CCCC[C@H]2C1,-5.89%
4,c1ccc(-c2cc(N3CCOCC3)nc(-c3ccccc3)n2)cc1,-5.46%
5,c1cnc2c(SCc3ccc(-c4nnco4)cc3)cccc2c1,1.45%
6,O=C1CC(C2CCCO2)C(=O)N1Cc1ccccc1 (stereo not drawn),3.23%
7,O=C(Cn1nc(-c2ccccc2)ccc1=O)Nc1ccc(N2CCN(C(=O)c3ccccc3)CC2)cc1,-37.8%
8,O=C(c1cnc(N2CCN(c3ncccn3)CC2)c2ccccc12)N1CCN(c2ncccn2)CC1,-21.3%
9,NC(=O)c1ccsc1NC(=O)COC(=O)c1cnccn1,2.13%
10,O=C(CSc1ncn(-c2ccccc2)n1)Nc1nccs1,14.1%
11,Cc1csc(NC(=O)c2cc([N+](=O)[O-])cc([N+](=O)[O-])c2)n1,-13.8%
12,CCOC(=O)c1c(C)n(C)c2cc(-c3ccc(C)cc3)c(O)cc12,15.1%
13,Cc1c(C)c2c(OCC(=O)NCC(O)c3ccccc3)cc3c(c2oc1=O)CCC(C)(C)O3 (stereo not drawn),9.68%
14,Cc1nn(Cc2ccccc2)c(C)c1NC(=O)CSc1n[nH]c(C)c1[N+](=O)[O-],3.02%
15,CC(C)NCC1CCc2cc(CO)c([N+](=O)[O-])cc2N1 (stereo not drawn),13%
16,O=[N+]([O-])c1ccc(/C=N/Nc2nc(N3CCOCC3)nc(N3CCOCC3)n2)cc1,4.32%
17,N#Cc1cc(Oc2cccc3cccnc23)c(-n2nnc3ccccc32)cc1C#N,-4.96%
18,Cc1nn(C)c(Oc2ccc(Cl)cc2)c1C(=O)O,12.8%
19,CC(C)NC(=O)C(=O)N/N=C/c1ccco1,14.8%
20,O=C(O)CCNc1cc2ccccc2cc1C(=O)O,-1.7%
21,CN(C(=O)CSc1nc2sc3c(c2c(=O)n1C)CCC3)C1CCS(=O)(=O)C1 (stereo not drawn),-1.43%
